The text below walks through data of the RNAGym collection of RNA variant scans (doi:10.1093/nar/gkz1192).

B1: CPEB3 Ribozyme (parent)
chain: UAACAGGGGGCCACAGCAGAAGCGUUCACGUCGCAGCCCCUGUCAGAUUCUGGUGAAUCUGCGAAUUCUGCUGUAUAUCUC

Read counts are not given, so values of variants with three or more changes are uncertain.

This data set covers variants of B1. As to the kind of experiment: self-cleavage, relative activity (ratio to wild type); higher = more cleavage; in vitro, sequencing. The gist of the method: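 Libraries of CPEB3 self-cleaving ribozyme mutants came from rounds of error-prone PCR and carried barcodes, which DNA sequencing matched to variants. In vitro transcription used T7 RNA polymerase at 37°C for 5 hours, with a further 15 min in DNase I before EDTA stopped the reaction; the ribozymes cleaved during both steps. The RNA was reverse transcribed with template switching and sequenced on Illumina. Relative activity is the cleaved/total read fraction of a variant divided by that of the unmutated ribozyme, averaged over three batches with at least 5 reads.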
As for G63A A64G C79A, the self-cleavage is 0.6.

Regarding A64G A75U U80C, the self-cleavage is 1.05.

With A64C A65G U72A, the self-cleavage turned out to be 0.23.

For U69C U76C C79G, the self-cleavage was 0.92.

With A64U U72G U76C A77U, the self-cleavage is 0.29.

Take C62U A64G A77G U80A: the self-cleavage is 0.15.

Take A65G A77G C79G: the self-cleavage was 0.68.

With A65G U69C U72C, the self-cleavage came out at 0.3.

In the case of U66C U69A A75U U78C, the self-cleavage came out at 0.3.

As to C62G U72C U78G, the self-cleavage is 0.19.

With U66C U69A U74C, the self-cleavage was 0.27.

As to A64U A75G U80G, the self-cleavage was determined as 0.32.

For A64G U72C U80A, the self-cleavage amounted to 1.05.

With U66A U69C G70A, the self-cleavage was 0.2.

Turning to A64G A65G U66C U76C, the self-cleavage turned out to be 0.24.

As for A65G U72A U78C, the self-cleavage worked out at 0.18.

In the case of A64G U67A U72G, the self-cleavage was determined as 0.24.

Regarding U72C A75U U80A, the self-cleavage was 1.29.

As for U66C U69A U80C, the self-cleavage worked out at 0.19.

For U67C C71U U78C, the self-cleavage worked out at 0.43.

Turning to A65G U69C U80A, the self-cleavage turned out to be 0.38.

Regarding A64G A65G U66C U80C, the self-cleavage is 0.15.

For U69G A77U C81U, the self-cleavage turned out to be 0.65.

With A65G U69C U72A U80A, the self-cleavage worked out at 0.11.

On to A64G U69A C81A, for which the self-cleavage came out at 0.54.

For C71U U74C U78C, the self-cleavage stood at 0.97.

Turning to C62U A64G U78A, the self-cleavage amounted to 0.11.

Consider G63A A65G A77U U80C, for which the self-cleavage was determined as 0.4.

In the case of G61U U66C U69C, the self-cleavage is 0.25.

For the variant U67A U72C C81A, the self-cleavage is 0.85.

Turning to A65U C71U U78C C79A, the self-cleavage came out at 0.22.

Turning to C62U U69C A77C, the self-cleavage is 0.16.

Consider U66A A75U A77G, for which the self-cleavage was 0.3.

For A65G U66C A75U U78C, the self-cleavage amounted to 0.17.

With U69C U74C A75G, the self-cleavage came to 0.13.

Consider U66C A77U U78A, for which the self-cleavage turned out to be 0.35.

As to A64G U67C U78A U80C, the self-cleavage turned out to be 0.21.

For the variant U72A U76C U80C, the self-cleavage turned out to be 1.21.

For the variant U67C C79U U80A, the self-cleavage was 0.29.

In the case of U66A U67C C71G U78C, the self-cleavage was found to be 0.27.

On to U67A U69C U80C, for which the self-cleavage was determined as 0.28.

Take A65U A77G U78C: the self-cleavage was 0.14.

On to U69C U72C A77G, for which the self-cleavage worked out at 0.21.

Turning to U67C U74G A75G, the self-cleavage came to 0.19.

In the case of U69A A77G U80A, the self-cleavage stood at 0.88.

Take A64U A65U U72C: the self-cleavage was 0.59.

Turning to U67C U78C U80C, the self-cleavage came to 0.25.

Turning to A64G U69C U78C, the self-cleavage worked out at 0.49.

Turning to G63U A65G U78C, the self-cleavage was 0.37.

A65G U69A U72A: the self-cleavage worked out at 0.24.

In the case of A64G U66C C81A, the self-cleavage came to 0.17.

For the variant A65U C68A U69C, the self-cleavage came out at 0.25.

U67C A75U U80C: the self-cleavage was 0.34.

For the variant U69A U74G U78A, the self-cleavage stood at 0.58.

With U69A U76C A77G, the self-cleavage was found to be 0.73.

Consider G61A A65G U72C, for which the self-cleavage is 0.37.

Take U66G U74A U78A: the self-cleavage was found to be 0.61.

On to U69A A75G U80A, for which the self-cleavage was 0.35.

For U67C G70C A75C, the self-cleavage was 0.16.

Consider U74C A75G U78C C81U, for which the self-cleavage worked out at 1.35.

For U69G A75G U76C, the self-cleavage came out at 0.46.

In the case of G70U U76C A77C, the self-cleavage amounted to 0.38.

Take G63C U72A U80C: the self-cleavage is 1.24.

Take C71U U72C U80C: the self-cleavage was 1.14.
